# Measured values as given in PubChem BioAssay AID1240 (Sanford-Burnham Center for Chemical Genomics, 2008).
# About 800 (1.6%) of roughly 50,000 compounds showed an effect of 50% or more. Some of the results follow.
# Biological target: Bcl-2-like protein 10 (Homo sapiens) (UniProt Q9HD36)
# Test: TR3 peptide-Bcl-B binding displacers, biochemical primary FP assay, phenotype converters (AID 1240);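 note: 0% = Bcl-B with tracer peptide and DMSO and 100% = tracer peptide lacking Bcl-B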
# Conditions: GST-Bcl-B / FITC-TR3 peptide fluorescence polarization; stronger effect = higher value; compound at 3.75 mg/L
# Sequence of UniProt Q9HD36 (Q9HD36 whole entry, looked up): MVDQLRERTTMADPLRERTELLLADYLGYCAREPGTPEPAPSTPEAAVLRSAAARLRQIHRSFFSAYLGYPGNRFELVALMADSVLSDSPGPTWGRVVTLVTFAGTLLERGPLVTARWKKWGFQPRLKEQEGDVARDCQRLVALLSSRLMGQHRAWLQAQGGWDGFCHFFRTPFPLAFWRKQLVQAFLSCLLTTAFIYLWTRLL
row,Structure (SMILES),displacement [%]
1,O=C1CC(c2ccccc2)CC2=C1C(c1ccc(F)cc1)Nc1ccccc1N2 (stereo not given),2.3
2,CCOC(=O)C1=C(C)N=c2s/c(=C\c3cc4c(cc3Cl)OCO4)c(=O)n2C1c1cccs1 (stereo not given),-8.9
3,COc1ccc(CC(=S)N2CCOCC2)cc1OC,-10.9
4,CC(=O)c1ccc2c3c([nH]c2c1)CCCC3,39.2
5,C=C(C)Cn1c(COc2cccc(C)c2)n[nH]c1=S,2.8
6,CN(C)c1ccc(N2C(=O)c3ccccc3C2=O)cc1,-13.5
7,CC(C)c1cc(N=NC(=N)N)cc(C(C)C)c1O,-37
8,c1ccc(COc2cccc(OCc3ccccc3)c2)cc1,-1.7
9,Ic1ccc(-c2nc(-c3ccccn3)no2)cc1,2.2
10,Cc1cc(=O)[nH]c(SCCOc2ccc(Cl)cc2)n1,11.1
11,CN(C)CCC(=O)c1cccc([N+](=O)[O-])c1,-11.5
12,Cc1ccc2nc(NC(=O)C3CCCCC3C(=O)O)sc2c1 (stereo not given),-11
13,COc1cc(NC(=O)CCCOc2ccc(Cl)cc2Cl)c2ncccc2c1,-3.6
14,Cc1ccc(-n2c(O)c(/C=N/n3cnnc3)c3ccccc3c2=O)cc1,5.8
15,COc1ccc(C(CC(=O)c2ccc(C)cc2)Nc2ccc(Cl)cc2)cc1OC (stereo not given),12.7
16,O=C(O)C(Cc1ccccc1)N1C(=O)/C(=C/c2cccc3ccccc23)SC1=S (stereo not given),0.4
17,Cc1c(Cl)c([N+](=O)[O-])nn1CC(=O)Nc1cc(C(F)(F)F)ccc1Cl,13
18,COc1ccc(OC)c(C(=O)c2ccc(C(=O)c3cc(OC)ccc3OC)cc2)c1,-4.8
19,Cc1c(C(=O)Nc2ccc(Cl)cc2)sc(N)c1C(=O)OC(C)C,-3.4
20,O=C(COc1ccc2ccccc2c1)Nc1ccccc1CO,-10.1
21,Cc1ccc(S(=O)(=O)Nc2ccccc2C(=O)O)cc1,2.1
22,C=CCc1cccc(/C=N/NC(=O)CSc2ccccn2)c1O,-17.4
23,CCC(C)c1ccc(NC(=O)c2ccc(Br)o2)c(O)c1 (stereo not given),-4
24,CCN(CC)C(=S)SC1CC(=O)N(c2ccccc2)C1=O (stereo not given),10
25,Clc1ccccc1OCCCCn1ccnc1,8.5
26,O=C(c1ccccc1)c1ccc2nc(-c3ccc(NC(=O)c4ccccc4Cl)cc3)[nH]c2c1,-9.3
27,COc1ccc(CNc2ncn[nH]2)cc1,17.1
28,CN(CCN(C)/N=C/c1ccc(N(C)C)cc1)/N=C/c1ccc(N(C)C)cc1,0.8

row,Structure (SMILES),displacement [%]
1,O=C(NCC1CCS(=O)(=O)C1)OC1CCCCC1 (stereo not given),2
2,Cc1[nH]c2ccc(C(=O)O)cc2c(=O)c1CCC(=O)O,-1.1
3,O=C(Nc1ccccc1Cl)C1CN(S(=O)(=O)c2ccccc2)CCN1S(=O)(=O)c1ccccc1 (stereo not given),0.1
4,CCNC(=S)NN=Cc1ccc(OCCOc2ccccc2C)cc1,-5.5
5,COc1ccc(C)cc1NC(=O)C(=O)NCc1ccco1,-16.4
6,Cc1sc(NC(=O)C2C3C=CC(C3)C2C(=O)O)c(C(N)=O)c1C (stereo not given),2.8
7,O=[N+]([O-])c1ccc(CN2CCN(Cc3cccnc3)CC2)cc1,-1.7
8,c1ccc2c(c1)nc(N1CCCCC1)c1nncn12,-8.5
9,O=C(N/N=C\c1cn(Cc2ccc(Cl)c(Cl)c2)c2ccccc12)c1ccc([N+](=O)[O-])cc1,-14.8
10,COc1ccc(-n2nc3cc(C)c(NC(=O)c4ccco4)cc3n2)cc1,5.1
11,CCOc1cc(C2Nc3ccccc3NC3=C2C(=O)CC(c2ccc(OC)cc2)C3)cc(Cl)c1O (stereo not given),-0.3
12,COC(=O)C1=CN(Cc2ccc(OC)cc2)C=C(C(=O)OC)C1c1cccs1,2.9
13,O=C(COc1ccc(Cl)cc1Br)N/N=C/c1cccc(OC(=O)c2cccs2)c1,12.6
14,O=C(COc1ccc(Cl)cc1Cl)n1cc([N+](=O)[O-])cn1,-1.7
15,CCCCCCCC(=O)CCCC(=O)Nc1ccc(C)cc1,15.9
16,Cc1ccc(OCC(=O)Nc2ccc(C)c(C)c2)cc1,14.5
17,Oc1ccccc1C=Nc1cc2c(cc1Br)OCCO2,-4
18,O=C(NC(=S)Nc1ccc(Cl)cc1)c1ccco1,3.1
19,CC1CCN(C(=O)Nc2cccc(Cl)c2)CC1,6.4
20,Cc1ccccc1C(=O)Nn1cnnc1,2.4
21,O=C1/C(=C\c2ccc(O)c(O)c2)SC(=S)N1c1cccc(Cl)c1,19.2
22,Cc1[nH]c2ccc(Br)cc2c1CC(=O)NNS(=O)(=O)c1ccccc1,-2.9
23,COc1ccccc1OCCNC(=O)Nc1ccc(Br)cc1,-11.2
24,O=c1cc(C(F)(F)C(F)F)oc2c1ccc1ccccc12,7.6
25,Cc1ccc(OCC(=O)N2CCCCC2)c(Br)c1,-7.8
26,O=C(Nc1ccc(Cl)cn1)c1cccc(OCc2ccccc2)c1,8.4
27,N#CC1=C(N)n2c(s/c(=C\c3ccc4c(c3)OCO4)c2=O)=C(C#N)C1c1ccc2c(c1)OCO2 (stereo not given),-2.3
